Measurements taken from PubChem BioAssay AID504332 (National Center for Advancing Translational Sciences (NCATS), 2011).
Among all 350,000 compounds or so, about 31,000 (8.9%) were called active. This list was built around the results that the source calls inconclusive (neither active nor inactive); the mix of calls is not that of the screen. Calls come from the whole dose curve; as a rule, active = well fitted inhibition curve with a large enough effect; inconclusive = small, poorly fitted or top-dose-only effect; inactive = no such curve, though single readings can be large or run the other way. Potencies of inconclusive entries are doubtful fits and often do not repeat.
% is set by controls: 0 for no effect and ±100 for the full control effect; potency is the fitted concentration of half-maximal effect; tags give direction and shape of the fitted curve.
Note: nearly all actives have a fitted effect of over 75% in size.

The compounds below were run against Histone-lysine N-methyltransferase EHMT2 (Homo sapiens) (UniProt Q96KQ7) (assay: qHTS Assay for Inhibitors of Histone Lysine Methyltransferase G9a). Settings: G9a H3K9 monomethylation, AlphaScreen, 2 h; activity, negative = inhibition: at 59 µM (top of the series) unless noted.
UniProt Q96KQ7, sequence (Q96KQ7 whole entry, looked up): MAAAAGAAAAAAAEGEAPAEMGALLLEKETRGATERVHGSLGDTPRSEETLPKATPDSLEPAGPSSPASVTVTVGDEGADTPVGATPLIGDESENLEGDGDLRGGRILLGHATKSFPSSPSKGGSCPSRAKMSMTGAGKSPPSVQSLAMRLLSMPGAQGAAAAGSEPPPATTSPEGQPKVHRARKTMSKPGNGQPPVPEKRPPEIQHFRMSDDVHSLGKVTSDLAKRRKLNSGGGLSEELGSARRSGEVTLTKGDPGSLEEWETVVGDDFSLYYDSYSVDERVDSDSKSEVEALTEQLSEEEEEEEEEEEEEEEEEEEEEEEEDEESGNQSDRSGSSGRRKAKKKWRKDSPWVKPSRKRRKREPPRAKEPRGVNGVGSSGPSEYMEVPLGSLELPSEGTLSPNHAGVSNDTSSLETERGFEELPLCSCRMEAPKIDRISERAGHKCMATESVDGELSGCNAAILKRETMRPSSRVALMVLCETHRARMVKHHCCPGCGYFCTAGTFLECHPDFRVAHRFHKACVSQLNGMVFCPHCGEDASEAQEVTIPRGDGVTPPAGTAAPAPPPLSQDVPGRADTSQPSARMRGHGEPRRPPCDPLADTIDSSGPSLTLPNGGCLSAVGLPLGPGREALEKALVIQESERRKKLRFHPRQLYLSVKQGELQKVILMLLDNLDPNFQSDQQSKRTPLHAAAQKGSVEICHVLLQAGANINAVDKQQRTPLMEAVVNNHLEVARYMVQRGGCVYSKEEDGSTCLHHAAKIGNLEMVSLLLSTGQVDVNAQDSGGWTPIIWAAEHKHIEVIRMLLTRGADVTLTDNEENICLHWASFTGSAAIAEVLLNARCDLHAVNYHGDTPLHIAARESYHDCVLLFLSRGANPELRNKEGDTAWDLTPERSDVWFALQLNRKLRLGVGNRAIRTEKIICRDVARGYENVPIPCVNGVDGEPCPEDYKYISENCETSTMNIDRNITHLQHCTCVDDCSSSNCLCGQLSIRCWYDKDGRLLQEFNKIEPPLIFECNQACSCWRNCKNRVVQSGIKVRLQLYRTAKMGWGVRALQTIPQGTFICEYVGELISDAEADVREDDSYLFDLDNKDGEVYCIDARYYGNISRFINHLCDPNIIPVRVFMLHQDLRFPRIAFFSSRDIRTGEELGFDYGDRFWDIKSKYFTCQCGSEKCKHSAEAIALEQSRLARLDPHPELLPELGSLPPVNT
Outline: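 G9a (20 nM) preincubated 15 min RT with compounds, then 500 nM biotinylated H3K9 peptide and 20 uM SAM added; 2 h RT reaction. Monomethyl-H3K9 product detected by AlphaScreen with anti-H3K9me1 antibody, streptavidin donor and anti-rabbit IgG acceptor beads.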
`Brc1ccc2c(c1)OCCOCCOCCOCCOCCOCCO2` was tested, and the Potency was inconclusive: 28.2 µM [inhibitor, single point].
In the case of `CC(C)C(=O)c1cn(CC(=O)NCc2ccc3c(c2)OCO3)c2ccccc12`, the “activity, negative = inhibition” value was inactive: 2.04%.
With `C=CCN1C(=O)c2ccc(C(=O)N(CCOC)c3c(N)n(CCCC)c(=O)[nH]c3=O)cc2C1=O` the Potency was inconclusive: 50.1 µM [inhibitor, partial curve, poor fit].
For `CCCCn1c(N)c(N(CC(C)C)C(=O)c2cccs2)c(=O)[nH]c1=O`, the Potency was inconclusive: 50.1 µM [inhibitor, partial curve, poor fit].
For `Cc1nc(SCC(=O)N2CCc3ccccc3C2)c2c(C)c(C)sc2n1`, the Potency was inconclusive: 28.2 µM [inhibitor, single point].
For `CN(Cc1cccnc1)C(=O)CNC(=O)COc1ccccc1`, the “activity, negative = inhibition” value was inactive: 23.5% [at 102 µM].
With `O=C(CN1C(=O)NC2(CCOc3ccccc32)C1=O)NCC(F)(F)F` (stereo not given) the “activity, negative = inhibition” value was inactive: 5.07% [at 102 µM].
With `CNC(=O)c1sccc1SCc1c(Cl)cccc1Cl` the “activity, negative = inhibition” value was inactive: 10.9% [at 102 µM].
For `CCCC(C)NC(=O)COc1ccc(S(=O)(=O)c2ccc(OCC(=O)NC(C)CCC)cc2)cc1` (stereo not given), the “activity, negative = inhibition” value was inactive: 5.06%.
`C=CCn1c(SCc2nc3ccccc3c(=O)[nH]2)nc2sc3c(c2c1=O)CCCC3` was tested, and the Potency was inconclusive: 39.8 µM [inhibitor, partial curve, poor fit].
For `O=C(Nc1nc2n(n1)C(c1ccccc1)CC(c1ccc(Cl)cc1)N2)c1ccco1` (stereo not given), the Potency was inconclusive: 70.8 µM [inhibitor, partial curve, poor fit].
`Cc1csc(/C(=N\O)c2csc(C)n2)n1` was tested, and the Potency was inconclusive: 31.6 µM [inhibitor, partial curve, poor fit].
With `CN(C)CCNC(=O)COc1cccc(Cl)c1` the Potency was active: 22.4 µM.
For `CC1=NN(Cc2c(C)nn(Cc3ccccc3)c2C)C(C)(C)C1`, the Potency was inconclusive: 100 µM [inhibitor, single point].
In the case of `Cc1ccc(CN2C(=O)N/C(=C\c3cccn3-c3cccc(C(=O)O)c3)C2=O)cc1`, the Potency was active: 15.8 µM.
`CCC(C)N1CC(=O)N2C(c3ccc(OC)cc3OC)c3[nH]c4ccccc4c3C[C@H]2C1=O` (stereo not given in full) was tested, and the Potency was inconclusive: 89.1 µM [inhibitor, single point].
In the case of `COc1ccc(-c2cc(CC3(C(=O)O)CCN(C(=O)OC(C)(C)C)CC3)on2)c(OC)c1`, the “activity, negative = inhibition” value was inactive: -16.8% [at 102 µM].
`Cc1c(O)c(S(=O)c2ccccc2)c(=O)n(-c2ccccc2)c1-c1ccccc1` (stereo not given) was tested, and the Potency was inconclusive: 35.5 µM [inhibitor, single point].
`CCCCCOc1c(Cl)cc(C(=O)N(Cc2ccc(C)o2)C2CCS(=O)(=O)C2)cc1Cl` (stereo not given) was tested, and the “activity, negative = inhibition” value was inactive: -9.73%.
`COc1ccc(-c2cn3c(C)c(C(=O)Nc4cccc(C)n4)sc3n2)cc1` was tested, and the Potency was active: 10 µM.
For `Oc1ccccc1N=Cc1sc2ccccc2c1Cl`, the Potency was inconclusive: 20 µM [inhibitor, single point].
`C[C@H](NC(=O)Nc1cccc(Br)c1)C(=O)O` was tested, and the activity, negative = inhibition was inconclusive: -60% [inhibitor] [at 12.7 µM].
`COc1ccccc1N1CCN(/N=C/c2cc(OC)c(OC(C)=O)c(OC)c2)CC1` was tested, and the activity, negative = inhibition was inactive: 18.4% [at 0.501 µM].
With `COc1cc(/C=N/Nc2cccc(C)c2)ccc1OC(=O)c1ccco1` the Potency was inconclusive: 35.5 µM [inhibitor, single point].
`Cc1cc(/C=C2/NC(=O)NC2=O)c(C)n1C` was tested, and the Potency was inconclusive: 31.6 µM [inhibitor, partial curve, poor fit].
In the case of `Cc1cccc(-c2nnc(SCC#N)n2-c2ccccc2)c1`, the Potency was inconclusive: 79.4 µM [inhibitor, partial curve, poor fit].
With `COCCN1Cc2cccc(C(=O)NCc3ccc4c(c3)OCO4)c2C1=O` the Potency was inconclusive: 50.1 µM [inhibitor, partial curve, poor fit].
In the case of `Cc1c(C(=O)NN)nn(-c2ccc(F)cc2)c(=O)c1C#N`, the “activity, negative = inhibition” value was inactive: -17.7% [at 102 µM].
With `CCC(CC)c1nnc(NC(=O)c2ccc3c(c2)OCO3)s1` the Potency was active: 22.4 µM.
In the case of `CC(=O)N1CCC2(CC1)CCN(C(=O)Nc1cccc(C#N)c1)CC2`, the activity, negative = inhibition was inactive: -4.56% [at 12.7 µM].
With `CCN(CC)c1ccc(NC(=O)c2c(C)noc2C)cc1` the Potency was active: 28.2 µM.
`CCc1c(C)c2ccc(OCC(=O)N(C)C)c(C)c2oc1=O` was tested, and the Potency was inconclusive: 8.91 µM [inhibitor, single point].
`CN(C)c1cccc2c1c(NC(=O)c1ccc(Cl)cc1)nn2C` was tested, and the Potency was inconclusive: 50.1 µM [inhibitor, single point].
For `Cc1ccnc(NC(=O)C2CCN(S(=O)(=O)c3cccc4nsnc34)CC2)c1`, the Potency was inconclusive: 56.2 µM [inhibitor, partial curve, poor fit].
For `CCOC(=O)N1CCN(C(=O)CS(=O)(=O)c2cn(Cc3ccccc3Cl)c3ccccc23)CC1`, the Potency was inconclusive: 39.8 µM [inhibitor, partial curve, poor fit].
With `CC(OC(=O)c1ccc2c(c1)S(=O)(=O)c1ccccc1C2=O)C(N)=O` (stereo not given) the Potency was active: 44.7 µM.
`O=C(CCN1C(=O)/C(=C/c2cccs2)SC1=S)Nc1cccc(O)c1` was tested, and the “activity, negative = inhibition” value was inactive: 25.8% [at 102 µM].
In the case of `COc1ccc(N2C(=O)CC(NCc3ccncc3)C2=O)cc1` (stereo not given), the Potency was inconclusive: 39.8 µM [inhibitor, single point].
With `CCOC(=O)c1c(NC(=O)COc2cc(C)ccc2C(C)C)sc(C)c1C` the Potency was active: 1.78 µM.
For `Cn1c(NCCO)nc2c(c1=O)C1(CCCCC1)Cc1ccccc1-2`, the Potency was inconclusive: 89.1 µM [inhibitor, single point].
In the case of `COc1ccc(N2CCN(CCNC(=O)Nc3ccc([N+](=O)[O-])cc3OC)CC2)cc1`, the Potency was active: 44.7 µM.
With `Cc1ccc(NC(=O)COC(=O)c2cc(C)nc3ccccc23)c([N+](=O)[O-])c1` the “activity, negative = inhibition” value was inactive: 2.03% [at 102 µM].
With `COC(=O)CNC(=O)c1ccc(NS(=O)(=O)c2cc([N+](=O)[O-])ccc2Cl)cc1` the Potency was active: 56.2 µM.
For `Cc1cccc(N2CCN(S(=O)(=O)c3cccc4nonc34)CC2)c1C`, the Potency was active: 20 µM.
For `CCc1ccccc1NC(=O)CN(c1cccc(OC)c1)S(C)(=O)=O`, the “activity, negative = inhibition” value was inactive: -5.08%.
In the case of `Cc1ccc(CN2CCSc3ccc(C(=O)NCc4cccnc4)cc32)cc1`, the Potency was inconclusive: 25.1 µM [inhibitor, full curve].
For `CCC(C(=O)NCc1ccc(F)cc1)n1nc(C)n2c(cc3occc32)c1=O` (stereo not given), the “activity, negative = inhibition” value was inactive: -11.9% [at 102 µM].
`CCOc1ccc(NC(=O)c2nn(C)c3c2CS(=O)(=O)c2ccccc2-3)cc1` was tested, and the Potency was inconclusive: 25.1 µM [inhibitor, partial curve, poor fit].
In the case of `Cc1cc(C)c2nc(NNC(=O)c3cc(=O)c4ccccc4o3)sc2c1`, the Potency was active: 8.91 µM.
In the case of `CCOc1ccc(NC(=O)c2c(NC(=O)CN3CCCC3)sc3c2CCC3)cc1`, the “activity, negative = inhibition” value was inactive: -12% [at 102 µM].
With `CCOc1ccc(OCCCCNC(C)(C)C)cc1` the Potency was active: 22.4 µM.
`COc1ccc(OC)c(C(=O)NC(CC(N)=O)c2ccc(N3CCN(c4ccc(F)cc4)CC3)c([N+](=O)[O-])c2)c1` (stereo not given) was tested, and the Potency was inconclusive: 89.1 µM [inhibitor, single point].
With `O=C(O)C1=C[C@H](c2ccc(C(F)(F)F)cc2)C[C@H](OCc2ccc(CO)cc2)O1` the activity, negative = inhibition was inconclusive: -86.6% [inhibitor].
In the case of `COc1ccc(/C=C2\C(=O)NC(=S)N2C(=O)c2ccc(F)cc2)cc1`, the Potency was inconclusive: 28.2 µM [inhibitor, single point].
`Cc1ccc2nc(-c3cc(NC(=O)/C=C/c4ccccc4)ccc3Cl)oc2c1` was tested, and the Potency was inconclusive: 35.5 µM [inhibitor, single point].
For `O=C(COc1ccccc1[N+](=O)[O-])Nc1cccc(S(=O)(=O)NC2=NCCCCC2)c1`, the Potency was inconclusive: 56.2 µM [inhibitor, partial curve, poor fit].
In the case of `CC(=O)NCC(=O)N(c1ccccc1)C1(C(=O)NC2CCCCC2)CCCCC1`, the Potency was inconclusive: 89.1 µM [inhibitor, partial curve, poor fit].
`O=C(COc1ccccc1)NCC(=O)N/N=C/c1ccc(Cl)cc1` was tested, and the “activity, negative = inhibition” value was inactive: 39.2% [at 102 µM].
In the case of `CCOC(=O)CNC(=O)CSc1nnc(-c2cccc(C)c2)n1-c1ccc(OC)cc1`, the activity, negative = inhibition was inactive: 6.35% [at 0.501 µM].
For `COc1ccc(Cl)cc1NC(=O)CN1CCN(Cc2ccccc2)CC1`, the activity, negative = inhibition was inactive: -11.9% [at 0.501 µM].
In the case of `CC(=O)Nc1ccc(N2C(=O)CSC2c2cccc(Br)c2)cc1` (stereo not given), the Potency was inconclusive: 89.1 µM [inhibitor, single point].
In the case of `Cc1cccc(NC(=O)CN2CCN(C(=O)C3CCN(C(=O)/C=C/c4ccccc4)CC3)CC2)c1C`, the activity, negative = inhibition was inactive: 14.7% [at 2.33 µM].
With `Clc1cccc(OCCCN2CCCC2)c1Cl` the Potency was inconclusive: 20 µM [inhibitor, partial curve, poor fit].
With `O=C(NNC(=O)C1CCN(Cc2ccccc2)CC1)c1cccs1` the Potency was inconclusive: 4.47 µM [inhibitor, partial curve, poor fit].
With `O=c1c2ccccc2c2ccccc2c(=O)n1-c1ccccc1` the Potency was active: 50.1 µM.
`N/C(=N\OC(=O)COc1ccc(Cl)cc1Cl)c1ccccn1` was tested, and the activity, negative = inhibition was inconclusive: -52.5% [inhibitor] [at 0.501 µM].
In the case of `O=C(CSc1nnc(-c2cccnc2)n1Cc1ccco1)c1ccc2ccccc2c1`, the Potency was active: 50.1 µM.
In the case of `N#CC1=C(N)OC2=C(C(=O)CC(c3ccccc3)C2)C1c1ccoc1` (stereo not given), the Potency was inconclusive: 89.1 µM [inhibitor, single point].
In the case of `CN1CCN(/N=C/c2ccc(N(C)c3ccccc3)cc2)CC1`, the Potency was inconclusive: 35.5 µM [inhibitor, partial curve, poor fit].
`CC(=O)N1c2ccc(S(=O)(=O)N3CCC(C(=O)Nc4cccc(F)c4)CC3)cc2CC1C` (stereo not given) was tested, and the “activity, negative = inhibition” value was inactive: 18.6% [at 102 µM].
